Assay results: patent US20090291088A1, “THERAPEUTIC COMBINATIONS OF ANTI-IGF-1R ANTIBODIES AND OTHER COMPOUNDS” (Biogen Idec MA Inc., priority 2008, published 2009)

B1: M14-B01.G4.P.agly: full-length aglycosylated human IgG4.P version of Fab M14-B01 (antibody)
heavy: EVQLLESGGGLVQPGGSLRLSCAASGFTFSNYHMAWVRQAPGKGLEWVSVISPTGGRTTYADSVKGRFTISRDNSKNTLYLQMNSLRAEDTATYYCARAGYSYGYGYFDYWGQGTLVTVSSASTKGPSVFPLAPCSRSTSESTAALGCLVKDYFPEPVTVSWNSGALTSGVHTFPAVLQSSGLYSLSSVVTVPSSSLGTKTYTCNVDHKPSNTKVDKRV[human IgG4 Fc with S228P T299A (EU numbers) not written out]
light: DIQMTQFPATLSVSPGERATLSCRASQSVMRNLAWYQQKPGQPPRLLIYGASKRATGIPARFSGSGSGTAFTLTISNLEPEDFAVYYCHQRSTWPLGTFGPGTKLEAKRTVAAPSVFIFPPSDEQLKSGTASVVCLLNNFYPREAKVQWKVDNALQSGNSQESVTEQDSKDSTYSLSSTLTLSKADYEKHKVYACEVTHQGLSSPVTKSFNRGEC
B2: chP2A7: murine-human chimera: muP2A7 variable regions linked to aglycosylated human IgG4 and kappa constant regions; SEQ ID NO:135, 139 (antibody)
heavy: QVQLQQSGPELVKPGASVKMSCKASGNTFTDYVINWVKQRTGQGLEWIGEIYPGNENTYYNEKFKGKATLTADKSSNTAYMQLSSLTSEDSAVYFCARGIYYYGSRTRTMDYWGQGTSVTVSSASTKGPSVFPLAPCSRSTSESTAALGCLVKDYFPEPVTVSWNSGALTSGVHTFPAVLQSSGLYSLSSVVTVPSSSLGTKTYTCNVDHKPSNTKVDKRV[human IgG4 Fc with S228P T299A (EU numbers) not written out]
light: EVVLTQSPTAMAASPGEKITITCSASSTLSSNYLHWYQQKPGFSPKLLIYRTSNLASGVPGRFSGSGSGTSYSLTIGTMEAEDVATYYCQQGSSIPLTFGAGTKLELKRTVAAPSVFIFPPSDEQLKSGTASVVCLLNNFYPREAKVQWKVDNALQSGNSQESVTEQDSKDSTYSLSSTLTLSKADYEKHKVYACEVTHQGLSSPVTKSFNRGEC
modifications: Antibody chimeric heavy chain; Chimeric antibody light chain
B3: chP1G10: chimeric P1G10-aglycosylated huIgG4, kappa mAb; SEQ ID NO:147, 149 (antibody)
heavy: QIQLVQSGPDLKKPGETVKISCKASGYTFTNHGMNWVKQAPGKDLKWMGWINTNTGEPTYADDFKGRFAFSLETSASTAYLQINNLKNEDTATYFCASPLYYRNGRYFDVWGAGTTVTVSSASTKGPSVFPLAPCSRSTSESTAALGCLVKDYFPEPVTVSWNSGALTSGVHTFPAVLQSSGLYSLSSVVTVPSSSLGTKTYTCNVDHKPSNTKVDKRV[human IgG4 Fc with S228P T299A (EU numbers) not written out]
light: DIQMTQTTSSLSASLGDRVTISCRASQDISNYLNWYQQKPDGSVKLLIYYTSRLHSGVPSRFSGSGSGTDYSLTISNLEQEDIATYFCQQGKTLPWTFGGGTKLEIKRTVAAPSVFIFPPSDEQLKSGTASVVCLLNNFYPREAKVQWKVDNALQSGNSQESVTEQDSKDSTYSLSSTLTLSKADYEKHKVYACEVTHQGLSSPVTKSFNRGEC
modifications: Chimeric antibody heavy chain; Chimeric antibody light chain

Legend:
[1] = target: IGF-1R (Homo sapiens, UniProt P08069); assay: Ligand blocking assay (RIA): 125I-IGF-1 / 125I-IGF-2 binding to immobilized IGF-1R; set-up: human IGF-1R(1-903)-Fc (denoted hIGF-1R-Fc, generated by Biogen Idec); conditions: 100 nM-0.01 nM antibody, IGF-1R-Fc
From the text: Ligand blocking assay (RIA). […] Insulin (Arg-Insulin, Cat #01-207) was purchased from Upstate Cell Signaling Solutions (Lake Placid, N.Y. (now part of Millipore, Concord, Mass. (USA)). ^125I-rhIGF-1 (Cat # IM172), ^125I-rhIGF-2 (Cat# IM238) and ^125I-rhInsulin (Cat# IM166) were purchased from Amersham Biosciences (Piscataway, N.J.). AffiPure goat anti-human IgG, Fcγ fragment specific antibodies (Cat #109-005-098, Jackson ImmunoResearch, West Grove, Pa.) was used for IGF-1R-Fc capture. As detection antibody, goat anti-mouse IgG HRP (Cat #1030-05, Southern Biotech Birmingham, Ala.) was used. […]
Recombinant human IGF-1R (Histidine tagged version) or IGF-1R-Fc was coated onto IMMULON2 HB (high binding) Removawell strips (Dynex Technologies, Inc., cat. #6302) diluted with carbonate coating buffer pH 9.5 to a concentration of 250 ng/well. […] The air-dried wells were counted with the Isodata Gamma Counter.
Alternatively, Fabs were evaluated by a modified capture assay, where the IGF-1R-Fc was captured using anti-human IgG immobilized to a plate. […]
The ligand blocking ability of the anti-IGF-1R antibody was determined by a solid phase RIA capture method as described in Example 3. […] After 1 hour of incubation at room temperature, the wells were washed and counted for bound radioactivity by a Gamma Counter. […] Percent (%) inhibition was calculated as =[1−(Ave.CPM with Ab)/(Ave.CPM with buffer)]×100%.

[2] = target: T1, IGF-1R-expressing MCF7 cells (Homo sapiens, UniProt P08069); assay: FACS staining of MCF7 cells with conditioned medium of chimeric antibody transfectants; type: binding; conditions: conditioned medium from transfected 293-EBNA cells
T1 construct: endogenous in cells; host or cells: MCF7 human mammary adenocarcinoma cells
Method: (§1) The chP2A7 heavy chain expression vector and the chP2A7 light chain expression vector were co-transfected into 293-EBNA cells and transfected cells were tested for antibody secretion and specificity. Empty vector- and hu5c8-S228P/T299A IgG4 (a molecularly cloned CD40L-specific mAb)-transfected cells served as controls. […] CHO cells were co-transfected with the chP2A7 heavy chain expression vector and the chP2A7 light chain expression vector to generate stable lines expressing chimeric P2A7-aglycosylated huIgG4, kappa mAb.
as §1, with “The ch20C8” for “The chP2A7”, “and ch20C8” for “and the chP2A7”, “the ch20C8” for “the chP2A7”, “chimeric 20C8-aglycosylated” for “chimeric P2A7-aglycosylated”
The chP1G10 heavy chain expression vector and chP1G10 light chain expression vector were co-transfected into 293-EBNA cells and transfected cells were tested for antibody secretion and specificity (empty vector- and hu5c8-S228P/T299A IgG4 (a molecularly cloned CD40L-specific mAb)-transfected cells served as controls). […]

Molecule	blocking of IGF-1 and IGF-2 binding to IGF-1R [1]	binding to IGF-1R-expressing MCF7 cells (FACS) [2]
B1	block both IGF-1 and IGF-2 binding	–
B2	–	bound
B3	–	bound with a titratable dose response
